We go through 72 sequences from article PMC10726135.

Some of the results follow. At the low end of the ranking, values are background and their order means little. Measured with an extract: partners may take part in the binding.

This test has as its target T1, HNF4alpha2 (COS-7 nuclear extract) (UniProt P41235).
T1 sequence: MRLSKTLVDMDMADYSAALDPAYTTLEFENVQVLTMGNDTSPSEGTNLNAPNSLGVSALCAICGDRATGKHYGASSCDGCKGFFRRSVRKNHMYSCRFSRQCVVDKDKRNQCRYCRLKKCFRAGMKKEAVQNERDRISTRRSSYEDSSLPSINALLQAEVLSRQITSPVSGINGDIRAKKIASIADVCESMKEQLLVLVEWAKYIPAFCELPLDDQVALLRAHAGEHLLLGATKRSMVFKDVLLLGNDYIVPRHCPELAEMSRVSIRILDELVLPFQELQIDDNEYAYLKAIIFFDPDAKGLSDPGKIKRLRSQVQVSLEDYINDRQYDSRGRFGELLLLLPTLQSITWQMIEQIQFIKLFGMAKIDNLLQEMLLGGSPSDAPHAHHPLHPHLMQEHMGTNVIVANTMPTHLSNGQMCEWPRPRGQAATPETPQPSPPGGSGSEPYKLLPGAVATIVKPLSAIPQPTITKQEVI
Put plainly: protein-binding microarray. Particulars: COS-7 nuclear extract on double-stranded Agilent 4x180k PBM; binding buffer, salt, pH and temperature not given; high values mean tight binding; double strand, one strand shown; sequences stand for … in …GCCTAGGGAGATTAGAGTATCGGTCGA
On to AGTCAGTTTAGTCCTGGATGACCCAGATAG, for which the binding signal (log2 normalized intensity) was 1.31.

As for GGAATGTGACCTTAGACCCCTGAATAGGTC, the binding signal (log2 normalized intensity) stood at 4.76.

Turning to GATGGCTCTGCAGAGGCTTCCTCTTTGGTG, the binding signal (log2 normalized intensity) is -0.631.

Regarding TGTAAACATGTGAGGAAGGCTCTTTGTTCA, the binding signal (log2 normalized intensity) was found to be 0.558.

In the case of CAGCTCCTCTCCTCCATGGCCTGGGGCCCT, the binding signal (log2 normalized intensity) was -0.986.

For the sequence CAAATTTATATCAGAGGAATGTCTGACCAA, the binding signal (log2 normalized intensity) amounted to 0.536.

Regarding ACACACTCACGGACCCTGTTACCACACCAC, the binding signal (log2 normalized intensity) is -0.182.

Consider CCGCCGCTAGGTGGCGGGCTGGCTCAGGAC, for which the binding signal (log2 normalized intensity) was -1.05.

For ACCTTTGGTTAACTTCTTAACTTGGTTTCC, the binding signal (log2 normalized intensity) was found to be 0.54.

For the sequence GATCTTGAGGCCCACAAGGAATTTCCTTGT, the binding signal (log2 normalized intensity) is -1.13.

Take AAAAAAAAAAAAAAAAAGAACACAGTGTAG: the binding signal (log2 normalized intensity) is -1.08.

Consider AAACAAACTCCCAGTCTGTTATCAGAGCTG, for which the binding signal (log2 normalized intensity) is -1.14.

On to TATCATGAGGTATATTCAACCCCCACTTCC, for which the binding signal (log2 normalized intensity) was found to be 4.26.

Consider GAATTCAACCCTTGTCACTTTCCCTTTGTC, for which the binding signal (log2 normalized intensity) is 1.67.

Take TCAAGCTAGGTAAGCACAGGTTTCTGTCCT: the binding signal (log2 normalized intensity) is 0.0877.

In the case of CTCTGCAAACATTTATTTTGTGTGCTAGAT, the binding signal (log2 normalized intensity) was found to be 1.54.

For the sequence GTATCTCTTCGCCTTGCTTATCTGGGAGGG, the binding signal (log2 normalized intensity) is -0.214.

In the case of TTATCAGCAGGACACCAAACAGACCTCCCC, the binding signal (log2 normalized intensity) was 2.42.

As to TGGTTACAAAGGTCACACTCCTGTGCAAAC, the binding signal (log2 normalized intensity) amounted to 3.88.

With CTAACAGCTGCAAGTGCCAACAAACTCAAT, the binding signal (log2 normalized intensity) was -1.13.

Consider TACCACCAAAGAAAAAAGCCAATCTCTCAA, for which the binding signal (log2 normalized intensity) is -1.13.

For ATTTTGGACTTTGTGCAAATGGAAAATTGT, the binding signal (log2 normalized intensity) amounted to 3.21.

As to TAAGATTGAGAACTTTGACACCGAGGCATA, the binding signal (log2 normalized intensity) worked out at 1.5.

For GGCTTGTACCTTGACCTTCTCTGTTAACCC, the binding signal (log2 normalized intensity) stood at 4.27.

For CCTTGCCACCCACACTGCAGCAAAACTTTA, the binding signal (log2 normalized intensity) is -0.723.

CAGAAAAGGCTGTAAACTCACTCTGGGAAA: the binding signal (log2 normalized intensity) is -1.18.

For the sequence TCTCATTTCTGAACACTCCAAGGTGTCCAG, the binding signal (log2 normalized intensity) was determined as 0.549.

On to GGGCTACCGATATGAGGCTTCCATTCTCAG, for which the binding signal (log2 normalized intensity) was -1.11.

TAAGTGTGGGTTTAAGTAAGCCCCCTTCCC: the binding signal (log2 normalized intensity) amounted to 4.48.

Regarding CACAATGTCAGTGAGGCCAAAAGGTGCTAC, the binding signal (log2 normalized intensity) is -1.09.

Turning to AGCCAATAGGCGAGGACGCAGTCCCGCGTG, the binding signal (log2 normalized intensity) is -1.06.

For TGGACAGAAATATCAGCAAGGAAATAAAAG, the binding signal (log2 normalized intensity) is -1.12.

Take ACCTAGTAGGCACAAAGGTGCAAAGTACAT: the binding signal (log2 normalized intensity) was 4.3.

Consider AGTCCAGAGTTTGTGGCTCCATACTCCTTA, for which the binding signal (log2 normalized intensity) is -0.835.

Take ACACCTCTTCTTTCTTCTCTGGTACCCTGG: the binding signal (log2 normalized intensity) worked out at 1.43.

With CAATTTCCAGGAGTATGTGTTTGCTTTACC, the binding signal (log2 normalized intensity) was found to be 0.472.

With GCTTAAATTCTTGTATGCTTAACTATGTTT, the binding signal (log2 normalized intensity) amounted to 1.35.

Take CATATTTTGAAAGAAAGAGACCTTTACCCT: the binding signal (log2 normalized intensity) was 4.91.

ATACAAGCTAATCTGACCAAGTGAACTGTG: the binding signal (log2 normalized intensity) is 1.23.

In the case of TTCTTTGGTTGGGAATAACATTGTGTAGTT, the binding signal (log2 normalized intensity) was 1.81.

Turning to CTTAGCAGGATTCTTGCTGCAGCTGGGCTA, the binding signal (log2 normalized intensity) is -1.04.

As for GAAGAGACAGCTGGGCCCTGCCTGACCTGC, the binding signal (log2 normalized intensity) turned out to be 0.813.

CGAGCACGGTGCAGGGAGGATATCCCTCCG: the binding signal (log2 normalized intensity) is -1.02.

For the sequence CTGCAAGGTTTGTGTACGGACGCATCTGTC, the binding signal (log2 normalized intensity) was 0.813.

For ACGCAGGGCGGCCGGCGGAGCGCCGAGCAG, the binding signal (log2 normalized intensity) was -1.01.

In the case of AACAGTGAGCCCAGTGGAGTAGGCTTTAGA, the binding signal (log2 normalized intensity) is -1.05.

Turning to TTCCCTTGGAATGCCAGATGACCTTTGCCC, the binding signal (log2 normalized intensity) turned out to be 9.88.

For GTGGTCCTAAGACTGACCTTTGATCATTTG, the binding signal (log2 normalized intensity) amounted to 8.56.

With TTTGGTGAGGCCCCAGTGTCAATTCTCATT, the binding signal (log2 normalized intensity) was determined as 1.82.

Regarding ATTGATTGGGACCTGAGAACAAACAATGGT, the binding signal (log2 normalized intensity) is 0.892.

For CCCATCTGGGACTTCAAAGCGCAGCGCGGG, the binding signal (log2 normalized intensity) was -1.02.

For CAATCAGAAACCGGGCCAATGGGTTCCCTG, the binding signal (log2 normalized intensity) was -1.1.

As for CAGGTGCTGGGATGATTCCCTTATCTTCTC, the binding signal (log2 normalized intensity) came to 0.742.

GCCCCTGATGTGATGTAATCAAATGTACAC: the binding signal (log2 normalized intensity) amounted to 2.08.

Regarding AGTGTGACTCATCAATCTGGAATTACCTGT, the binding signal (log2 normalized intensity) was found to be 0.257.

Take CCGGAATTTCCTCCTGGCAGAGCATAGAAG: the binding signal (log2 normalized intensity) is -1.07.

In the case of TAGTATTGAGTTTGCTCTGCTACTAACTGC, the binding signal (log2 normalized intensity) is -0.991.

As for TAGGGCCACTTTGTCCTTCACTTGTAGGAG, the binding signal (log2 normalized intensity) stood at 0.555.

Turning to ACACAGAGATCTGATCAAAGGTCATTGGTA, the binding signal (log2 normalized intensity) stood at 5.88.

On to TTGTCAGTGAGGAATGTGCAAACGGCCCAG, for which the binding signal (log2 normalized intensity) is -1.14.

For GAGCTGCTGGAACAGGCTGGGACACGCCTG, the binding signal (log2 normalized intensity) was -1.16.

As to CTGGCCCAGCCTGGCCTCTAGAGTGGTTGC, the binding signal (log2 normalized intensity) was -1.14.

In the case of GCAGACCCTATTGGGCTAGCCGCTCCTCCC, the binding signal (log2 normalized intensity) is -0.974.

In the case of AATGATGATGACTTTTGACCCCAGGGGAAA, the binding signal (log2 normalized intensity) came to 5.51.

For GAATCCTCTCTTGCTCAGGTGAGGCCAGTC, the binding signal (log2 normalized intensity) was -0.96.

For the sequence AGAGCAGAATCTACAAGGACCAGATTCTTA, the binding signal (log2 normalized intensity) was -1.18.

GGTCAAGGACTGTTCAGTCCCAGTATGTGC: the binding signal (log2 normalized intensity) turned out to be 0.851.

On to GTTTTGAGATAGGGTCTTGCTTTGTCACCC, for which the binding signal (log2 normalized intensity) amounted to 1.81.

As for CCAGAGTTCAGGTAGAGGGATTCCCTGGGA, the binding signal (log2 normalized intensity) was -1.07.

Regarding GCTCCCTCCCCTCCTCCCTTGCTCACCCCA, the binding signal (log2 normalized intensity) was found to be 5.91.

In the case of TAAGTACCCACTATAGATTGTGAGATAAGT, the binding signal (log2 normalized intensity) came to 0.14.

In the case of CCCCAAAAACTTGGACTCTATAGCCTATGC, the binding signal (log2 normalized intensity) turned out to be 1.62.
